Data published in patent publication US20020037832A1, “Use of alpha-MSH and EPO for preventing or treating ischemic conditions” (priority 2000, published 2002).

Test system: splanchnic artery occlusion shocked rats
Assay: Splanchnic artery occlusion shock (SAO-shock): 45 minutes clamping of coeliac trunk and superior mesenteric artery, four hours reperfusion
Settings: α-MSH 200 μg/kg or rh-EPO 200 IU/kg i.v.

Substance | rats alive at the end of the 4 hour follow up period [%]
epoetin alfa [rh-EPO, reference compound] | 80
α-melanocyte stimulating hormone [α-MSH] | 80
